These results are taken from PubChem BioAssay AID485344 (National Center for Advancing Translational Sciences (NCATS), 2010).

Each structure is given as a SMILES string. Among all 340,000 compounds or so, about 6,900 (2%) were called active. Rule as the data show it: active = inhibition above about 30%; inactive = below that, where a call was filed. This is a selection; strong and weak results do not stand in their true shares. Entries without a call were filed so in the source.

Sequence of UniProt P14416 (P14416 whole entry, looked up): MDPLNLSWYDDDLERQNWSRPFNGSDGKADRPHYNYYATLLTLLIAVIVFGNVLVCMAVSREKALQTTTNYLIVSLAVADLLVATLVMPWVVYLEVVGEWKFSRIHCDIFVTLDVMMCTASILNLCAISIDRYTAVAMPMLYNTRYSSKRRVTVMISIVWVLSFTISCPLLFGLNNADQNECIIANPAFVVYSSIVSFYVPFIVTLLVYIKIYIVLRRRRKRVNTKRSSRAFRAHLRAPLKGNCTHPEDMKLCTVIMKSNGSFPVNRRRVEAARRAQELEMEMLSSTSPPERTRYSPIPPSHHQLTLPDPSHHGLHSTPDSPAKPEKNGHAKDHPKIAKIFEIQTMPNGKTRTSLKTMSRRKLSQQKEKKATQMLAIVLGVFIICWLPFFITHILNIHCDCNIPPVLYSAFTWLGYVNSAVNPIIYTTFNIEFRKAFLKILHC

This experiment deals with D(2) dopamine receptor (Homo sapiens) (UniProt P14416). In words: HTS Assay for Allosteric Antagonists of the Human D2 Dopamine Receptor: Primary Screen for Antagonists. Also: 0% is about no effect. The conditions noted are these: HEK293 TREx D2 cells, calcium flux, dopamine EC80; at 10 µM; stronger effect = higher value. The gist of the method:
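Dopamine at EC80 is the agonist stimulus; test compounds precede it by 180 s. Calcium flux read kinetically in a force-coupled, inducible HEK293 T-REx D2 cell line.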
In general terms: Calcium assays in cells follow changes in intracellular calcium, usually with a dye or a luminescent sensor.
Broadly, the inhibition is the change of the read-out against control, counted positive when it falls. Consider `COc1ccc(-c2nc(CSCC(=O)N3CCN(c4ccccc4F)CC3)c(C)o2)cc1`, for which the inhibition is -5.82%.
For `O=C(NCc1ccccc1)NC1COc2ccccc2C1` (stereo not given), the inhibition came out at 9.94%.
With `Cn1cc(S(=O)(=O)N2CCCCCC2)cc1C(=O)NCc1ccc(F)cc1`, the inhibition was found to be 13.1%.
As to `CCN(C(=O)Cn1c(=O)oc2cc(S(=O)(=O)N3CCCCCC3)ccc21)c1cccc(C)c1`, the inhibition is 3.92%.
With `O=C(CCS(=O)(=O)c1ccc(Br)s1)Nc1cc(C(F)(F)F)cc(C(F)(F)F)c1`, the inhibition is -2.38%.
Then `COc1ccc(C(=O)NC(c2ccccc2Cl)c2cc(Cl)c3cccnc3c2O)cc1` (stereo not given), with -11.1%.
Regarding `Cc1c(C)n(Cc2ccccc2)c2ccc(C(=O)N3CCN(c4ccccc4)CC3)cc12`, the inhibition worked out at 8.13%.
With `CCN(CC)S(=O)(=O)c1ccc2c(c1)N(CC(=O)Nc1c(C)cccc1C)C(=O)C1CCCN21` (stereo not given), the inhibition came out at 2.89%.
With `CCOC(=O)c1oc2c(c1C)-c1nn(Cc3cccc(Cl)c3)cc1CC2`, the inhibition was 6.65%.
For the compound `Cc1ccc(OCC(=O)NCC(=O)OCc2cc(=O)n3nc(C(C)C)sc3n2)cc1`, the inhibition worked out at 4.63%.
As to `CC(C)Oc1ccc(C(=O)N(Cc2ccc(N(C)C)cc2)Cc2ccco2)cc1`, the inhibition was found to be 7.03%.
For `O=C(COc1ccccc1F)Nc1ccc2nc(SCC(=O)N3CCOCC3)sc2c1`, the inhibition was -21.8%.
On to `CCOc1cc(C)c(Cl)cc1S(=O)(=O)NCCOC`, for which the inhibition was active: 32.3%.
Under `O=S(=O)(c1ccccc1)c1nc(-c2ccc(F)cc2)oc1NCc1ccccc1` stands 5.8%.
On to `COc1ccc(CNC(=O)CCCc2nnc3n(C(C)C)c(=O)c4sccc4n23)cc1`, for which the inhibition came to 14.1%.
For the compound `O=C(NCCc1ccccc1)c1ccc2c(c1)nc1n2CCOC1`, the inhibition was -0.903%.
Under `Cc1ccc(S(=O)(=O)Nc2cc(Cl)c3oc4c(c3c2)CCCC4)cc1` stands -16.4%; under `Cc1c(-c2nsc(NC(=O)c3cccs3)n2)nnn1-c1ccc(F)cc1`, 4.29%.
In the case of `CCOC(=O)c1cccc(NC(=O)CSc2ncc3c(n2)-c2ccc(Cl)cc2N(Cc2ccccc2)S3(=O)=O)c1`, the inhibition is -4.8%.
As for `COc1ccccc1CNC(=O)CCS(=O)(=O)c1ccc2c(c1)oc(=O)n2C`, the inhibition is -0.132%.
Then `CCOC(=O)C1(CCOc2ccccc2)CCN(Cc2ccc(-n3cccn3)cc2)CC1`, with active: 35.2%; and `CCOc1ccc(CNC(=O)CSc2c3c(nc4cc(Cl)ccc24)CCCC3)cc1`, with 14.7%.
On to `CC1=C(C(=O)N2CCCCC2)C(c2ccc(Cl)cc2)n2c(nc3ccccc32)N1` (stereo not given), for which the inhibition was 1.88%.
Under `Cc1ccc(CN2C(=O)c3ccccc3Sc3ccc(C(=O)N4CCOCC4)cc32)cc1` stands 2.79%.
As to `Cc1cccc(C(=O)Nc2ccc(N3CC=C(c4ccccc4C)CC3)c(C(=O)O)c2)c1`, the inhibition was 18.9%.
In the case of `CCOc1ccc(NC(=O)CSc2oc(-c3ccco3)nc2S(=O)(=O)c2ccccc2)cc1`, the inhibition was -10.8%.
With `COc1ccc(-c2nc(C)c(CCNC(=O)c3ccc(C(F)(F)F)cc3)s2)cc1OC`, the inhibition came to 8.85%.
Under `Cc1ccc(NC(=O)c2oc3ccc(S(=O)(=O)N(C)C4CCCCC4)cc3c2C)c(C)c1` stands 21.6%; under `CCCNC(=O)c1cc2n(n1)CCCN(Cc1ccc(C)cc1)C2=O`, -17.8%.
Regarding `CCOC(=O)c1c(C)oc2nc(C)nc(NCCc3ccc(C)cc3)c12`, the inhibition is -5.66%.
Turning to `COc1cc(NC(=O)CN2CCCN(Cc3cccc(F)c3)S2(=O)=O)cc(OC)c1`, the inhibition was -13.2%.
As for `O=c1[nH]c(CN2CCN(c3ccccc3)CC2)nc2scc(-c3ccccc3)c12`, the inhibition was active: 31.9%.
Regarding `Cc1c(C(=O)N2CCCC2)oc2c1-c1nn(CC(=O)NCCCN3CCCCC3)cc1CC2`, the inhibition was active: 37.3%.
As to `CCCc1cc(N2CCN(c3ccccc3F)CC2)n2cnnc2n1`, the inhibition amounted to 14.3%.
For the compound `Cn1c(CN2CCOCC2)nc2cc(NC(=O)c3ccccc3[N+](=O)[O-])ccc21`, the inhibition came out at 0.55%.
On to `CCOc1cccc2sc(N3CCN(C(=O)c4ccco4)CC3)nc12`, for which the inhibition is -24.3%.
As to `COc1cc(OC)c(NC(=O)c2ccc(-n3cnc4cccnc43)cc2)cc1Cl`, the inhibition is -5.59%.
Under `O=C(NCCCN1CCN(c2ccc(F)cc2)CC1)Nc1ccccc1Cl` stands 2.91%.
For `O=C(CSc1nc2c([nH]c3ccccc32)c(=O)n1-c1ccccc1)N1CCCCC1`, the inhibition is -3.47%.
Under `CC(C)CCNC(=O)c1cc(-c2cccnc2)nc2ccc(S(=O)(=O)N3CCC(C)CC3)cc12` stands -23.9%.
Consider `COc1cccc(CC2(CO)CCCN(Cc3ccc4c(c3)OCCO4)C2)c1` (stereo not given), for which the inhibition is active: 56.2%.
Turning to `COc1ccc(NC(=O)c2nnn(-c3ccc(C(C)C)cc3)c2C)c(OC)c1`, the inhibition is 17.7%.
Regarding `Cc1cccc(-n2c3nc(=O)[nH]c(=O)c-3cc3ccc(Cl)cc32)c1C`, the inhibition was 17.8%.
Then `CCOc1ccc(-c2cc(C(=O)NCCc3ccc(C)cc3)c3ccccc3n2)cc1`, with 0.483%; and `CCOC(=O)c1c(N)n(-c2ccc(OCC)cc2)c2nc3ccccc3nc12`, with -2.79%.
On to `CC(=O)c1cccc(NC(=O)Cn2ccn3nc(-c4ccccc4)cc3c2=O)c1`, for which the inhibition is -25.9%.
Under `Cc1cc(Nc2cc(Cl)ccc2C)n2nc(-c3ccccc3)nc2n1` stands 4.25%.
Under `Cc1ccc(CN(Cc2cccn2-c2nnc(N3CCCC3=O)s2)C(=O)Nc2ccccc2Cl)cc1` stands 2.13%; under `Cc1cc(C)c2c(NC(=O)c3ccccc3Cl)c(C(=O)NCc3ccc(Cl)cc3)sc2n1`, 11.2%; under `Cc1nc2c(-c3ccc(F)cc3)c(C)nn2c(C)c1CCC(=O)NCc1ccc(F)cc1`, 8.05%.
`CCOC(=O)c1c(C)[nH]c(CCC(=O)NCc2ccc(OC)cc2OC)c1C`: the inhibition was 9.02%.
Regarding `COc1ccc(OCCCn2c(C3CC(=O)N(c4ccc(F)cc4)C3)nc3ccccc32)cc1` (stereo not given), the inhibition was -5.89%.
As to `CC(=O)Nc1cccc(NC(=O)CSc2nccn2Cc2ccccc2)c1`, the inhibition was -17.2%.
As to `CC1=C(c2ccc(C(C)C)cc2)S(=O)(=O)N=C1N1CCC(C(=O)NCc2ccc(C)o2)CC1`, the inhibition turned out to be 10.2%.
With `O=C(NC1CCCCC1)c1ccc(CSc2nc3cccnc3n2Cc2ccccc2)cc1`, the inhibition was 13.4%.
On to `Cc1ccccc1-c1noc(-c2ccc(NCc3cccnc3)c([N+](=O)[O-])c2)n1`, for which the inhibition came to 15.9%.
For the compound `Cc1ccccc1NC(=O)c1c(C)oc2ccc(O)c(CN3CCCCCC3)c12`, the inhibition is 20.4%.
Regarding `COc1ccc(C)cc1NC(=O)CN(C)S(=O)(=O)c1ccc2c(c1)c(=O)n(C)c(=O)n2C`, the inhibition is -21%.
Turning to `CCC(CC)C(=O)Nc1ccc(S(=O)(=O)N2CCC(c3nc4ccccc4s3)CC2)cc1`, the inhibition is 0.61%.
Turning to `Cc1nc(-c2ccc(S(=O)(=O)N3CCN(c4ccccc4F)CC3)cc2)co1`, the inhibition was determined as 3.36%.
Turning to `Cc1ccccc1NC(=O)c1sc2nc(-c3cc4ccccc4oc3=O)[nH]c(=O)c2c1C`, the inhibition is -0.0653%.
Take `CCN(C(=O)Cn1c(C(=O)OC)cc2sccc21)c1cccc(C)c1`: the inhibition was -5.04%.
In the case of `CCCn1cc(S(=O)(=O)c2ccc(C)c(C)c2)c(=O)c2cc(F)c(N3CCCCC3)cc21`, the inhibition was found to be 9.37%.
Take `CC(C)NC(=O)c1ccc(CSc2nc3ccncc3n2Cc2cccc(F)c2)cc1`: the inhibition is 2.34%.
As to `Cc1ccc(-c2nc3sc(CCNC(=O)c4ccc(F)c(F)c4)c(C)n3n2)cc1`, the inhibition is -7.98%.
Take `CCCCC12CN3CC(C)(CN(C1)C3c1ccc(OCc3ccccc3)cc1)C2=O` (stereo not given): the inhibition was determined as 8.31%.
With `CC1=C(C(=O)Nc2ccccc2Br)C2(CCC(C)CC2)OC1=O` (stereo not given), the inhibition is -3.42%.
In the case of `O=C(C1CCN(S(=O)(=O)c2cccs2)CC1)N1CCN(c2ccccc2F)CC1`, the inhibition is 17.4%.
Regarding `Cc1ccc(CNC(=O)CCCCCn2c(=O)c3sccc3n(CC(=O)N3CCCCC3C)c2=O)cc1` (stereo not given), the inhibition is -0.228%.
Turning to `COc1cccc(CNC(=O)CN2C(=O)COc3ccc(S(=O)(=O)N4CCCCC4)cc32)c1`, the inhibition stood at 24.2%.
Consider `CCN(CC)c1ccc(CN(C(=O)c2cc(=O)c3ccccc3o2)C2CCS(=O)(=O)C2)cc1` (stereo not given), for which the inhibition amounted to 9.43%.
Under `Cc1nn(Cc2ccc(F)cc2)c(C)c1NC(=O)c1noc2c1CCc1ccccc1-2` stands -8.7%; under `CCn1cc2nc(SCc3cc(C)ccc3C)n(Cc3ccc(Cl)cc3)c(=O)c2n1`, -3.86%; under `CCOC(=O)c1ccc(NC(=O)Cc2noc3ccc(C)cc23)cc1`, -2.66%.
For `Cn1cc(S(=O)(=O)N2CCCC2)cc1C(=O)Nc1ccc(F)cc1F`, the inhibition came out at 14.6%.
In the case of `CC(C)c1ccc(C2CC(=O)N3CN(C4CCCCC4)CSC3=C2C#N)cc1` (stereo not given), the inhibition came to 6.37%.
On to `CC(C)Oc1cccc(C(=O)Nc2ccccc2N2CCOCC2)c1`, for which the inhibition is active: 33.4%.
In the case of `Cc1ccccc1-c1nc(CNC(=O)NC2CCCCC2)c(C)o1`, the inhibition amounted to 13%.
Take `Cn1ccc2cc(S(=O)(=O)N3CCCC(C(=O)NCc4ccccc4F)C3)ccc21` (stereo not given): the inhibition was -14.7%.
For `CC1=C(C(=O)Nc2ccccc2)C(c2ccc(Br)cc2)n2nc(CCCO)nc2N1` (stereo not given), the inhibition was -0.31%.
In the case of `COc1ccc(-n2ncc3c2ncn2nc(-c4ccc(OC)c(OC)c4)nc32)cc1`, the inhibition came out at 0.871%.
`Cc1ccc(F)cc1NC(=O)CCOc1ccccc1`: the inhibition is active: 31.6%.
As to `CCCc1cc(=O)[nH]c(Nc2cc(Cl)cc(Cl)c2)n1`, the inhibition was -6.49%.
For the compound `COc1ccccc1N1CCN(C(=O)c2nn(C)c3c2CS(=O)(=O)c2ccccc2-3)CC1`, the inhibition was found to be 24.4%.
As to `Cc1ccc(NC(=O)/C(C#N)=C(\N)C(Cl)(Cl)Cl)nc1`, the inhibition is active: 32.5%.
For the compound `CCc1nnc(NC(=O)CSc2nnc(-c3ccncc3)n2Cc2ccccc2)s1`, the inhibition is active: 30.7%.
For `N#Cc1nc(/C=C/c2ccc(F)cc2)oc1N1CCCCCC1`, the inhibition was -5.52%.
Regarding `COc1cccc(-n2c(SCC(=O)Nc3ccc4c(c3)OCO4)nc3c([nH]c4ccccc43)c2=O)c1`, the inhibition turned out to be 21.6%.
As to `Cc1cc(NC(=O)CCN2CCC(C)CC2)ccc1Br`, the inhibition is active: 39.1%.
As to `CCc1c(C)sc(NC(=O)c2cc3nc(-c4ccc(OC)cc4)cc(C(F)(F)F)n3n2)c1C(=O)OC`, the inhibition is 14.8%.
For `COc1ccc(-n2nc(C(=O)Nc3cc(C)c(Cl)cc3OC)c3c4ccccc4n(C)c3c2=O)cc1`, the inhibition is -2.55%.
Regarding `Cc1ccccc1NC(=O)CSc1nc(-c2cccs2)nc2cc(=O)[nH]n12`, the inhibition is 7.65%.
Under `COC(=O)c1ccccc1NC(=O)c1ccc2c(c1)CCN2S(=O)(=O)c1ccc(Cl)cc1` stands 6.51%.
In the case of `Cc1cc(C)c(S(=O)(=O)NCC2CCC(C(=O)NCCc3ccccc3)CC2)c(C)c1` (stereo not given), the inhibition was 3.3%.
Consider `Cc1ccc(-c2c3c(=O)n(C)c(=O)n(C)c3c3c(-c4cccc(C)c4)nc4ccccc4n23)cc1`, for which the inhibition was 6.16%.
